# Data from paper PMC4336329 (PLoS ONE, 2015).
# Out of some 310,000 compounds screened, about 2,200 (0.71%) showed an effect of 50% or more. Effects have a minus sign here. This is one part of the list.
# Molecular target: human ether-à-go-go-related gene (hERG) potassium channel (human, UniProt Q12809)
# Assay: primary screen, population patch clamp on CHO cells stably expressing hERG
# Sequence of human ether-à-go-go-related gene (hERG) potassium channel (Q12809 whole entry, looked up): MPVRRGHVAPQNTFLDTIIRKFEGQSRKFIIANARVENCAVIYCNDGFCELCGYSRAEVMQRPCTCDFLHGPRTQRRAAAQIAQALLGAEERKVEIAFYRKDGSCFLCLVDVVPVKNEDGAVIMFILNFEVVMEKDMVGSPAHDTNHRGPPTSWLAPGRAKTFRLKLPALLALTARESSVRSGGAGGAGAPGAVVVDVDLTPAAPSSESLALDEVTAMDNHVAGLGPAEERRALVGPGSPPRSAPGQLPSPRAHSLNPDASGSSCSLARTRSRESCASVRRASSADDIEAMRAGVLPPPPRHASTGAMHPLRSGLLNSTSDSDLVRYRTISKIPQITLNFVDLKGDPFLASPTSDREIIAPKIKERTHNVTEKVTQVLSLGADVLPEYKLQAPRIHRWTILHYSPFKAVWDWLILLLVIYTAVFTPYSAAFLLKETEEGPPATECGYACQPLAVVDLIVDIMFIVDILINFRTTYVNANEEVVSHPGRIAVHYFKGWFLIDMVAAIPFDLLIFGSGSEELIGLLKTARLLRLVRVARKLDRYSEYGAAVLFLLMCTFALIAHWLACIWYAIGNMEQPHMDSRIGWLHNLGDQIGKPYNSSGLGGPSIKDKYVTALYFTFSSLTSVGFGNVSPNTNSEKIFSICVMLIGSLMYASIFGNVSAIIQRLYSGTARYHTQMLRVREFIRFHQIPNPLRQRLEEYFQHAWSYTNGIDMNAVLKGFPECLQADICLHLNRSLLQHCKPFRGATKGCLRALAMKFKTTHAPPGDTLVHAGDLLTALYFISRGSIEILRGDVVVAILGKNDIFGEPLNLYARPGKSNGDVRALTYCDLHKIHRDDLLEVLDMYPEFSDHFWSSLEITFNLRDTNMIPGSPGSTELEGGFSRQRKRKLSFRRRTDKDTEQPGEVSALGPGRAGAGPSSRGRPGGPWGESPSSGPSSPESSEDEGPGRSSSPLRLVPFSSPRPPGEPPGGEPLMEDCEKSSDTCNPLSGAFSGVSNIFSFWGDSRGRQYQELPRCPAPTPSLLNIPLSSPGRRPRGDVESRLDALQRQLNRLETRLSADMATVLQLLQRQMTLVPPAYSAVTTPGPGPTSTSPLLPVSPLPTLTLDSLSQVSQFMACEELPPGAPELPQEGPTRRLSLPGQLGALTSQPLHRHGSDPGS
row,Compound,"hERG current change (%, negative = inhibition) at 1uM"
1,CC(C)CNC(=O)c1ccccc1NC(=O)CCSc1ccccc1,12.9%
2,O=C(Oc1ccc(N(Cc2cccs2)C2=NS(=O)(=O)c3ccccc32)cc1)c1ccccc1,-5.3%
3,CC1Cc2ccccc2N1CC(=O)Nc1ccc(Cl)c(S(=O)(=O)N(C)C)c1 (stereo not shown),1.68%
4,COc1ccc(OC)c(-c2csc(NC(=O)COC(=O)c3ccc(NC(=O)CC#N)cc3)n2)c1,13.7%
5,CCN(CC)CCCNC(=O)c1cn(C)c(=O)c2c1c1ccccc1n2C,14.2%
6,CCCCOc1ncnc2c1[nH]c1ccc(OC)cc12,14.4%
7,CC(=O)C(=[N+]=[N-])C(=O)NCc1ccccc1,13.9%
8,O=C(O)CSc1nnc(-c2ccccc2Br)n1-c1cccc(C(F)(F)F)c1,9.1%
9,COC(=O)c1sc(S(=O)(=O)N2CCC(C)CC2)c(C(=O)OC)c1C,-0.735%
10,CCOc1ccccc1NC(=O)c1ccc(NC(=O)C2CCCO2)cc1 (stereo not shown),11.5%
11,N#CCSc1nc2sccc2c(=O)n1-c1ccccc1,12.2%
12,O=C(CN(c1cccc(Cl)c1)S(=O)(=O)c1ccccc1)NN=C1CCCC1,4.25%
13,O=C(COC(=O)c1ccc(F)c(S(=O)(=O)N2CCOCC2)c1)Nc1ccc2[nH]c(=O)[nH]c2c1,16.3%
14,CN(CCc1cn[nH]c1)Cc1nc(C(c2ccccc2)c2ccccc2)no1,1.13%
15,CCN(CC)C(=O)N1c2ccccc2CC(N(CC)CC)c2ccccc21 (stereo not shown),4.6%
16,CCOC(=O)C1CCCN(C(=O)c2cc3ccc(OC)cc3[nH]2)C1 (stereo not shown),5.15%
17,c1coc(-c2nnc(NC3=NCCC3)o2)c1,10.2%
18,CN1CCN(c2nc(-c3cccs3)cc(C(F)(F)F)n2)CC1,0.412%
19,COCCN1C(=O)N[C@@H](c2cccc(C(F)(F)F)c2)[C@H](C(C)=O)[C@H]1C,13.8%
20,O=C(CN1C(=O)NC2(CCCC2)C1=O)Nc1ccc(F)c(Cl)c1,14%
21,Cc1ccc(Nc2nc(-c3cccnc3)nc3ccccc23)cc1,4.43%
22,Cc1cccc(NC(=O)CNC(=O)c2sc3ccccc3c2Cl)n1,7.44%
23,COc1c(C)cc(C(=O)C2CCCN(C(=O)c3cc(C)nc(C)n3)C2)cc1C (stereo not shown),16.1%
24,O=C(NCCc1ccccc1)c1ccc(CS(=O)(=O)Cc2ccc(F)cc2)o1,17.3%
25,Nc1nc(Cl)cc(Nc2ccccc2Cl)n1,13.4%
26,Cc1cc(C)c(NC(=O)CN2CCN3CCCC3C2)c(C)c1.O=C(O)/C=C/C(=O)O (stereo not shown),-1.48%
27,CSCCC(NC(=O)c1ccccc1Br)C(=O)NCC(C)(C)N1CCOCC1 (stereo not shown),0.0891%
28,Cc1nnc(C)c2c(C)n(-c3ccccc3N)c(C)c12,5.4%

row,Compound,"hERG current change (%, negative = inhibition) at 1uM"
1,CC1CCN(CCCNC(=O)c2coc3nc4ccccc4nc23)CC1,5.14%
2,COc1ccc(NC(=O)[C@@H]2CC=C[C@@H]3CCN(Cc4ccc(Cl)c(Cl)c4)C(=O)[C@@H]32)cc1,8.2%
3,CC1=C(C(=O)OC(C)C)C(c2ccc(Cl)cc2)n2c(s/c(=C\c3ccc(OCC(=O)O)cc3)c2=O)=N1 (stereo not shown),12.6%
4,COc1ccc(C(=O)NCc2nnc(SCC(=O)Nc3cc(C)cc(C)c3)o2)cc1OC,0.399%
5,COc1ccc(-n2nc(C(=O)NCC(=O)Nc3cc(OC)ccc3OC)c3ccccc3c2=O)cc1,15.1%
6,COc1ccc(NC(=O)CC2Nc3cccc4cccc(c34)NC2=O)cc1 (stereo not shown),-1.28%
7,CN(Cc1nnc(-c2ccc(F)cc2)o1)c1ccccc1,5.9%
8,Cc1ccc(-c2nnc(N3CCCCC3)c3ccccc23)cc1,6.13%
9,CCSc1ccccc1C(=O)Nc1cc(OC)c(OC)c(OC)c1,5.05%
10,COc1cc(NC(=O)C2CCN(S(=O)(=O)c3ccc4c(c3)CC(C)N4C(C)=O)CC2)cc(OC)c1OC (stereo not shown),12.5%
11,CC12CCC(C(=O)NNc3ccc([N+](=O)[O-])cc3)(CC1=O)C2(C)C (stereo not shown),3.53%
12,Cc1ccnc2nc(C(=O)OCC(=O)N(CC(C)C)CC(C)C)nn12,3.35%
13,Nc1ccn(Cc2ccccc2)n1,4.91%
14,Nc1nc2ccc(N3CCOCC3)cc2s1,-0.364%
15,CO/N=C/c1ccc(N2CCN(C(=O)c3ccc(Cl)cc3Cl)CC2)c([N+](=O)[O-])c1,-18.5%
16,Cc1cc(/C=N/NC(=O)c2ccc(O)cc2)c(C)n1CC(C)C,-0.384%
17,CN(Cc1ccccc1)c1ccc(N2C(=O)CCC2=O)cc1[N+](=O)[O-],7.39%
18,C/C(=N/NC(=O)c1ccc(Cl)cc1Cl)c1cccnc1,18.6%
19,Cc1ccc(CN2C(=O)CCC2C(=O)N2CCN(c3ccc(F)cc3)CC2)cc1 (stereo not shown),2.62%
20,COc1cc(/C=N/NC(=O)CNC(=O)c2ccco2)ccc1O,5.36%
21,CN1CCN(C(=O)c2cc3ccccc3cc2O)CC1,3.96%
22,COc1cc(/C=C2\SC(=S)N(C(Cc3ccccc3)C(=O)O)C2=O)ccc1O (stereo not shown),12.1%
23,CC1(NC(=S)NCCCCCCNC(=S)NC2(C)CCS(=O)(=O)C2)CCS(=O)(=O)C1 (stereo not shown),9.73%
24,CCOCCCNC(=O)C1(O)c2ccccc2NC(=O)N1c1ccc(Cl)cc1 (stereo not shown),7.28%
25,CCOP(=O)(/C=C(\Cl)c1ccccc1)C(O)c1ccc(F)cc1 (stereo not shown),9.42%
26,COc1cccc(/C=C/C(=O)Nc2ccc3[nH]c(=O)[nH]c3c2)c1,12%
27,O=C(NNC(=O)c1ccccc1-n1cccc1)c1cccc(Cl)c1,0.959%
